Assay results: article PMC5316989
Results are given in words; binding and its absence hold for the method and conditions named. For part of these data: In cells and extracts the contact can be indirect. Some results given as binding are weak or reduced against the parent protein; the word gives no strength. Where a sequence is shown, tags or fusion partners need not be part of it. Values belong to the substance of their own block, whether it stands above or below them.

Amino acid sequences for entries named in this document (tags omitted).
UniProt O14964: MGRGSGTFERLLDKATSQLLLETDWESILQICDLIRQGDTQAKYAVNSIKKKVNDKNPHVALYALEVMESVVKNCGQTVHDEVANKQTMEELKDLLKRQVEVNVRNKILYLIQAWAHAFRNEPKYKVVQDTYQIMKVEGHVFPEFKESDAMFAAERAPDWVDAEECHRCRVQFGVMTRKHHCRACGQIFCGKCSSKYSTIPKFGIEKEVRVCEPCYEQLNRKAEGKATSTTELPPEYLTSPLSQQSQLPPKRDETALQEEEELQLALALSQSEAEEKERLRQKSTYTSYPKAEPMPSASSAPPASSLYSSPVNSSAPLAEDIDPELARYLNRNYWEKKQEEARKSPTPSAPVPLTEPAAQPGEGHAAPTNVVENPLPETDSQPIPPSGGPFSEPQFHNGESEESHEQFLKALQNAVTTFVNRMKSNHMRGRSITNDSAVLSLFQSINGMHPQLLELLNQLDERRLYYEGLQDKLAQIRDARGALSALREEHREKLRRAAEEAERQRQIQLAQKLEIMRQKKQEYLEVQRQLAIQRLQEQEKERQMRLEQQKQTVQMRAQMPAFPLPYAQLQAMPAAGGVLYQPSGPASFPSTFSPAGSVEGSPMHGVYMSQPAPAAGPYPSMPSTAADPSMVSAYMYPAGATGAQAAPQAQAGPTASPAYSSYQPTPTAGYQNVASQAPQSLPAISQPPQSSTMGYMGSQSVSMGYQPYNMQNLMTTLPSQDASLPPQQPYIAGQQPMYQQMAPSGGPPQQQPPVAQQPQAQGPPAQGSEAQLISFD
UniProt Q92783: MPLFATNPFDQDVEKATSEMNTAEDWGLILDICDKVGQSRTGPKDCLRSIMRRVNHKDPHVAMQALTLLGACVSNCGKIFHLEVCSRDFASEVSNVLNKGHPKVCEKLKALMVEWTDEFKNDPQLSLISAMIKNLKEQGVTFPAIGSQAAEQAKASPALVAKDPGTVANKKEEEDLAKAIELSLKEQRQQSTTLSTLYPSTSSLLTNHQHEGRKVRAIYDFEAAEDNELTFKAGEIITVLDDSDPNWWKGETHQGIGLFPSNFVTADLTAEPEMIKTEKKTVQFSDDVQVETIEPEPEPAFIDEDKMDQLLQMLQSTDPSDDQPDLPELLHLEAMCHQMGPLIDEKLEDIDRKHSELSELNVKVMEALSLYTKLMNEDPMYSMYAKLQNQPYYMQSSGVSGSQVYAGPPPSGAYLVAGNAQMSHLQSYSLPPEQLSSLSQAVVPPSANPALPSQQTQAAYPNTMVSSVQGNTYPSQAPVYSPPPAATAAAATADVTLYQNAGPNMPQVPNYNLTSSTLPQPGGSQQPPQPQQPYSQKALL
UniProt P46934: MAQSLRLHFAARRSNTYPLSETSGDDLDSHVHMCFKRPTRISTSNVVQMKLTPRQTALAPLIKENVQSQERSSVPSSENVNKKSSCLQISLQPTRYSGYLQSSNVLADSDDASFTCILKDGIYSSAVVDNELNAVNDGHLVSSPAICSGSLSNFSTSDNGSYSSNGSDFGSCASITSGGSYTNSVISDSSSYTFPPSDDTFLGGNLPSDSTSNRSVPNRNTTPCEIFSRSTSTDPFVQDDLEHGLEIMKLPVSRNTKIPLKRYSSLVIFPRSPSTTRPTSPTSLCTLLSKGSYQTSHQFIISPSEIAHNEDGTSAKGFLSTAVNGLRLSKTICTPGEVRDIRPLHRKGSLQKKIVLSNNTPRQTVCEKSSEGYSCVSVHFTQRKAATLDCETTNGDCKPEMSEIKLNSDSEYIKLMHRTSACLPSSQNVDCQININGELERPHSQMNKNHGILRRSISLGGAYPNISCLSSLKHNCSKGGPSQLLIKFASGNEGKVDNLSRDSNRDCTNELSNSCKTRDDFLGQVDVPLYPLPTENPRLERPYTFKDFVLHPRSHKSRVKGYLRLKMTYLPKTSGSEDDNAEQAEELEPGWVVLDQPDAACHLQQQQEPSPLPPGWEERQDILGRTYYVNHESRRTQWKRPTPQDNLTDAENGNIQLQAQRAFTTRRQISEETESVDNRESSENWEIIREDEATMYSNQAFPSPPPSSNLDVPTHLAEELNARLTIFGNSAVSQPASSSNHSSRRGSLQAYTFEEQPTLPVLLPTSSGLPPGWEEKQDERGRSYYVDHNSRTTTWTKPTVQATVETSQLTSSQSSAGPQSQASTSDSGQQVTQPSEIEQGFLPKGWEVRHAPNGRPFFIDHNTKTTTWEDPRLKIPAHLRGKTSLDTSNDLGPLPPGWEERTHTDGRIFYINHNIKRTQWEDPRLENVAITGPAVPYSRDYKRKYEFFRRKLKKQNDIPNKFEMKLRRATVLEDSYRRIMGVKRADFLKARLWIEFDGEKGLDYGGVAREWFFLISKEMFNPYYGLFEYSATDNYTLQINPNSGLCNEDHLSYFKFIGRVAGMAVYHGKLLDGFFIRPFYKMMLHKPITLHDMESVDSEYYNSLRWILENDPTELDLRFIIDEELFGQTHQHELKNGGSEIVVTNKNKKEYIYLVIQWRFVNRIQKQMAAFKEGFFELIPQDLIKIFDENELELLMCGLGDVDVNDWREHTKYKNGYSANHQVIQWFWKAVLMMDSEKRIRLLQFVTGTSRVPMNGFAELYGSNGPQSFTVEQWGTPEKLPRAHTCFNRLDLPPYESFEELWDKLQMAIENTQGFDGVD
UniProt Q9BTE1: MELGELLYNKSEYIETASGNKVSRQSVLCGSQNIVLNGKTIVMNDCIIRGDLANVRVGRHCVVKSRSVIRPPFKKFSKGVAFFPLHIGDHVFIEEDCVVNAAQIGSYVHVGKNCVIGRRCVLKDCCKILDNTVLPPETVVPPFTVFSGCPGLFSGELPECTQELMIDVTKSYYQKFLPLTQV
UniProt O00399: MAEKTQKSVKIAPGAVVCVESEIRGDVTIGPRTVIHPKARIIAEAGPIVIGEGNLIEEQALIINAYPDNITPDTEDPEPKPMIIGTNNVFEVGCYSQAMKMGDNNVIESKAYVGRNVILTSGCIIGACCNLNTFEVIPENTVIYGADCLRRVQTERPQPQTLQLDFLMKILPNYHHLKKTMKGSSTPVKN
UniProt Q9UJW0: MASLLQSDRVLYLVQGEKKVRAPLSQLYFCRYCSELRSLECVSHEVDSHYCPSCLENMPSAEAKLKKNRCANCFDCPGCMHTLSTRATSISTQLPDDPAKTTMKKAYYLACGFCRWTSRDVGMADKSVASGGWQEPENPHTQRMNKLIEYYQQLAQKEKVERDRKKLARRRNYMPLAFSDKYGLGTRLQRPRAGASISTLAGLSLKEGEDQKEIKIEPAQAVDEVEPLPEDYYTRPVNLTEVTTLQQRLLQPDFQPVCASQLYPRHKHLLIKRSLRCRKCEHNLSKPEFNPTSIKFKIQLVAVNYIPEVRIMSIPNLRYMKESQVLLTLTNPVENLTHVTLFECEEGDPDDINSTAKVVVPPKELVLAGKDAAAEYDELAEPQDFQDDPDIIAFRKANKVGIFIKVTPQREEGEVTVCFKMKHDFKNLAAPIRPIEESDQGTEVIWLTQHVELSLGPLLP

Key:
TMEPAI-WT-Flag = target: T1, TMEPAI-WT-Flag (UniProt Q969W9); experiment: co-IP; HeLa cells co-transfected with TMEPAI-WT-Flag and HA-Hrs or HA-STAM; extracts immunoprecipitated with antibody to Flag, blot with antibodies to HA and Flag
T1 sequence: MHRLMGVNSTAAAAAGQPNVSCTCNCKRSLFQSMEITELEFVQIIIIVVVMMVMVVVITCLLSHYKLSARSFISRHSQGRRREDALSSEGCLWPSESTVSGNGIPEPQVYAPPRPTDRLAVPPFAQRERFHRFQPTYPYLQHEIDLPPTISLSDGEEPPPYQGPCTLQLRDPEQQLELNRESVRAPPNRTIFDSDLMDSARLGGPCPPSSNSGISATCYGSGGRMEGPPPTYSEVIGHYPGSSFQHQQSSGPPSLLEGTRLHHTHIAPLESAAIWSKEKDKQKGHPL

[1] = target: T2, GST-tagged cytoplasmic domain of TMEPAI with deletion of amino acids 132–155 (GST-TMEPAI (Δ132–155)) (UniProt Q969W9); experiment: pull-down; GST fusion proteins on Glutathione Sepharose beads incubated with His-HA-tagged recombinant DCTN5 or DCTN6; blot with antibody to HA; both purified
T2 sequence: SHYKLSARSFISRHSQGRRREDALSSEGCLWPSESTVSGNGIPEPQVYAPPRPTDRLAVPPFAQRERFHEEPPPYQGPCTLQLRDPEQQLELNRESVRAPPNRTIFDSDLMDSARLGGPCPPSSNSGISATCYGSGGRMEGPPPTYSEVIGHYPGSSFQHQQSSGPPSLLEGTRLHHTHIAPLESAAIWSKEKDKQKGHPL

[2] = target: T3, TMEPAI cytoplasmic domain (aa63-287) fused to the GAL4 DNA-binding domain (UniProt Q969W9); experiment: two-hybrid; TMEPAI versions as GAL4 DNA-binding domain fusions, partners as GAL4 activation domain fusions; yeast patched on DDO, QDO and QDO/X/A plates, growth on QDO and QDO/X/A means interaction
T3 sequence: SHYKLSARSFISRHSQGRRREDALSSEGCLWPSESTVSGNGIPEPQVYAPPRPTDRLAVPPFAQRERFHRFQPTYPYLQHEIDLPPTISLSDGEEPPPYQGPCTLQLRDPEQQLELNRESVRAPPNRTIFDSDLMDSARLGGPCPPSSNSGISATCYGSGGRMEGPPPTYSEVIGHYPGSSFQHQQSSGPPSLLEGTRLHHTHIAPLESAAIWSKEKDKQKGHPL

[3] = target: T3, TMEPAI cytoplasmic domain (aa63-287) fused to the GAL4 DNA-binding domain; experiment: two-hybrid; data not shown; told in the sentence on the yeast two-hybrid deletion screen
[4] = target: T4, TMEPAI cytoplasmic domain lacking aa132–155 fused to the GAL4 DNA-binding domain (UniProt Q969W9); experiment: as above
T4 sequence: T2 sequence

[5] = target: T4, TMEPAI cytoplasmic domain lacking aa132–155 fused to the GAL4 DNA-binding domain; experiment: two-hybrid; TMEPAI versions as GAL4 DNA-binding domain fusions, partners as GAL4 activation domain fusions; yeast patched on DDO, QDO and QDO/X/A plates, growth on QDO and QDO/X/A means interaction
[6] = target: T3, TMEPAI cytoplasmic domain (aa63-287) fused to the GAL4 DNA-binding domain; experiment: two-hybrid; initial yeast two-hybrid screening with TMEPAI; bait and library not described

binding (TMEPAI-WT-Flag): binds
Substance: HA-Hrs (from UniProt O14964 1-777)

binding (TMEPAI-WT-Flag): binds
Substance: HA-STAM (from UniProt Q92783 1-540)

binding [2]: binds
Substance: Human Hrs fused to the GAL4 activation domain (from UniProt O14964 1-777)

binding [3]: binds
binding [4]: binds
binding [2]: binds
Substance: Human Nedd4 fused to the GAL4 activation domain (from UniProt P46934 1-1319) (enzyme)

binding [2]: binds
Substance: Human STAM fused to the GAL4 activation domain (from UniProt Q92783 1-540)

The next lines start with the substance.

Substance: His-HA-tagged recombinant DCTN5 (from UniProt Q9BTE1 1-182)
binding [1]: no binding

Substance: His-HA-tagged recombinant DCTN6 (from UniProt O00399 1-190)
binding [1]: no binding

Substance: Human dynactin 4 (DCTN4) fused to the GAL4 activation domain (from UniProt Q9UJW0 1-460)
binding [2]: no binding

Substance: Human dynactin 5 (DCTN5) fused to the GAL4 activation domain (from UniProt Q9BTE1 1-182)
binding [2]: binds
binding [5]: no binding

Substance: Human dynactin 6 (DCTN6) fused to the GAL4 activation domain (from UniProt O00399 1-190)
binding [2]: binds
binding [5]: no binding
binding [6]: binds
